According to PubChem BioAssay AID624202 (National Center for Advancing Translational Sciences (NCATS), 2012):
The whole screen tested about 380,000 compounds, of which about 4,000 (1.1%) were called active. This list was built around the results that the source calls inconclusive (neither active nor inactive); the mix of calls is not that of the screen. Calls follow the shape of the dose curve; as a rule, active = well fitted activation curve with a large enough effect; inconclusive = small, poorly fitted or top-dose-only effect; inactive = no such curve, though single readings can be large or run the other way. Potencies of inconclusive entries are doubtful fits and often do not repeat.

Assay: qHTS Assay to Identify Small Molecule Activators of BRCA1 Expression; also: nearly all actives have a fitted effect of over 80% in size
Details: MCF7-BRCA1-FFLuc reporter, luminescence, 48 h; activation: at 46.1 µM (top of the series), scaled: vehicle 0%, 10 µM genistein 100% unless noted
How it was run: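 Luminescence from a BRCA1-driven firefly luciferase in MCF7 cells was the read-out, taken 15 min after substrate addition following 48 h compound exposure at 37 °C. Data were normalized to a 10 microM genistein control and DMSO vehicle.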
Potency is read from the fitted curve at half-maximal effect; tags tell the direction and shape of the fitted curve.

**Q.** For `C/C(=C\C(=O)c1ccc(Cl)cc1)Nc1ccc(Br)cc1`, which Potency is on record?
**A.** inconclusive: 35.5 µM [activator, single point]

**Q.** Which Potency does the source give for `c1ccc(COc2ccc3nocc3c2)cc1` here?
**A.** inconclusive: 11.2 µM [activator, partial curve, poor fit]

**Q.** With `COc1cc(CN2CCC(C(N)=O)CC2)ccc1OCc1ccccc1` as the compound, how does the Potency read?
**A.** active: 11.2 µM

**Q.** Which Potency does the source give for `Fc1ccccc1Nc1nc2ccccc2o1` here?
**A.** inconclusive: 1.58 µM [activator, partial curve, poor fit]

**Q.** For `Cc1cc(/C=C(\C#N)C(=O)NCc2cccs2)c(C)n1-c1ccccc1F`, which Potency is on record?
**A.** inconclusive: 2.51 µM [activator, partial curve, poor fit]

**Q.** Which Potency does the source give for `Cc1cccc(NC(=O)CSc2nnc(-c3ccccc3C)o2)c1` here?
**A.** active: 12.6 µM

**Q.** For `C(=N\NCc1ccccc1)/c1ccc2nccnc2c1`, which Potency is on record?
**A.** active: 4.47 µM

**Q.** For `COCCN1CCN(C(=O)c2cc(COc3cc(C)ccc3C)on2)CC1`, which Potency is on record?
**A.** inconclusive: 14.1 µM [activator, partial curve, poor fit]

**Q.** For `COc1ccc2c(c1)Cc1sc(NC(=O)c3ccccc3)nc1-2`, which Potency is on record?
**A.** inconclusive: 1.26 µM [activator, full curve, poor fit]

**Q.** With `COC(=O)Cn1c(=NC(=O)c2cccc(OC)c2)sc2cc(OC)ccc21` as the compound, how does the Potency read?
**A.** active: 10 µM

**Q.** Which Potency does the source give for `COc1cccc(C(=O)Nc2ccc(F)cc2F)c1` here?
**A.** inconclusive: 35.5 µM [activator, single point]

**Q.** With `CNCCCC1Sc2ccccc2Oc2ccccc21` (stereo not drawn) as the compound, how does the “activation” value read?
**A.** inactive: -36.5%

**Q.** Which Potency does the source give for `Cc1ccc(/C=C/C(=O)N2CCc3ccccc32)o1` here?
**A.** inconclusive: 1.26 µM [activator, partial curve, poor fit]

**Q.** With `CC(=O)Nc1ccc(NC(=O)Nc2cccc(Cl)c2)cc1` as the compound, how does the Potency read?
**A.** inconclusive: 11.2 µM [activator, partial curve, poor fit]

**Q.** With `CCn1c(O)c(/C=C2\C=Nc3ccccc32)sc1=O` as the compound, how does the Potency read?
**A.** inconclusive: 7.94 µM [activator, partial curve, poor fit]

**Q.** Which Potency does the source give for `Cc1ccc(OCc2nnc(N)s2)cc1C` here?
**A.** inconclusive: 6.31 µM [activator, partial curve, poor fit]

**Q.** With `CC(=O)c1cccc(NC(=S)NC(=O)c2ccc(Br)cc2)c1` as the compound, how does the Potency read?
**A.** inconclusive: 35.5 µM [activator, single point]

**Q.** Which Potency does the source give for `COc1ccc2sc(NC(=O)CC(C)C)nc2c1` here?
**A.** active: 5.62 µM

**Q.** With `Cc1ccc(-c2nn(-c3ccccc3)cc2/C=N/NC(=O)c2ccc3c(c2)OCO3)cc1` as the compound, how does the Potency read?
**A.** inconclusive: 7.94 µM [activator, partial curve, poor fit]

**Q.** With `Cc1ccccc1-c1nnc(Cc2ccccc2)o1` as the compound, how does the Potency read?
**A.** active: 2.82 µM

**Q.** Which Potency does the source give for `Cc1ccccc1-c1nnc(CS(=O)(=O)c2ccccc2)o1` here?
**A.** inconclusive: 1 µM [activator, full curve, poor fit]

**Q.** With `C(#Cc1ccc2c(c1)COc1c3ccccc3nn1-2)c1ccccc1` as the compound, how does the Potency read?
**A.** inconclusive: 10 µM [activator, partial curve, poor fit]

**Q.** With `O=C(N/N=C/c1cccc([N+](=O)[O-])c1O)C(O)(c1ccccc1)c1ccccc1` as the compound, how does the “activation” value read?
**A.** inactive: -46.8%

**Q.** With `CN1C(=O)C(O)(c2nnc(-c3ccccc3)o2)c2ccccc21` (stereo not drawn) as the compound, how does the Potency read?
**A.** inconclusive: 35.5 µM [activator, single point]

**Q.** For `COc1ccc(NC(=O)NCCC2=CCCCC2)cc1`, which Potency is on record?
**A.** inconclusive: 2.82 µM [activator, full curve, poor fit]

**Q.** For `Cc1ccsc1C(=O)N/N=C/c1ccc2c(c1)OCO2`, which Potency is on record?
**A.** inconclusive: 1.26 µM [activator, full curve, poor fit]

**Q.** For `CN1CCC(N(C)C(=O)c2ccc(Cl)c(S(=O)(=O)N(C)c3ccc(Cl)cc3)c2)CC1`, which “activation” value is on record?
**A.** inactive: -25.8%

**Q.** With `O=C(Nc1nsc(-c2ccccc2)n1)c1ccncc1` as the compound, how does the Potency read?
**A.** inconclusive: 11.2 µM [activator, single point]

**Q.** Which “activation” value does the source give for `CCC(C)(C)n1nnnc1C(c1ccccc1)N1CCN(Cc2ccccc2)CC1` (stereo not drawn) here?
**A.** inactive: -4.69%

**Q.** Which Potency does the source give for `CCCOc1ncnc2c1[nH]c1ccc(OC)cc12` here?
**A.** inconclusive: 2.82 µM [activator, partial curve, poor fit]

**Q.** Which Potency does the source give for `O=[N+]([O-])c1ccccc1N/N=C\c1ccccc1Cl` here?
**A.** active: 2.51 µM

**Q.** With `COc1ccc(C(=O)c2ccsc2N)cc1` as the compound, how does the Potency read?
**A.** active: 11.2 µM

**Q.** With `Cc1ccc(/C=N\NC(=O)c2cc([N+](=O)[O-])cc([N+](=O)[O-])c2)o1` as the compound, how does the “activation” value read?
**A.** inactive: 10.6%

**Q.** Which activation does the source give for `Cc1sc(NC(=S)NC(=O)CCc2ccccc2)c(C(N)=O)c1C` here?
**A.** inconclusive: -70.5% [activator]

**Q.** With `CCc1sc(C(=O)Nc2ccc3nc(C)sc3c2)cc1C` as the compound, how does the Potency read?
**A.** active: 3.16 µM

**Q.** Which Potency does the source give for `COc1cccc(-c2nnc3sc(-c4ccco4)nn23)c1` here?
**A.** active: 8.91 µM

**Q.** Which “activation” value does the source give for `Cc1ccc(NC(=O)CSc2nc3ccc(NC(=O)c4cccc(Cl)c4)cc3s2)c(C)c1` here?
**A.** inactive: 5.88%

**Q.** For `COCCCNC(=S)N1CCN(c2nc(C)nc3sc4c(c23)CCCC4)CC1`, which “activation” value is on record?
**A.** inactive: -19.5%

**Q.** With `Cn1nnnc1SCC1=C(C(=O)O)N2C(=O)[C@@H](NC(=O)[C@H](O)c3ccccc3)[C@H]2SC1` as the compound, how does the “activation” value read?
**A.** inactive: 5.95%

**Q.** For `Cc1cnc(NC(=O)CCCNC(=O)c2ccc(Cl)cc2)s1`, which Potency is on record?
**A.** inconclusive: 31.6 µM [activator, single point]

**Q.** Which activation does the source give for `CSc1ccc(NC(=O)Nc2cc(C)ccn2)cc1` here?
**A.** inconclusive: 14.9% [activator]

**Q.** With `Cc1ccc(OCC(=O)O/N=C(\N)c2ccccn2)cc1` as the compound, how does the Potency read?
**A.** active: 6.31 µM

**Q.** Which Potency does the source give for `OC(c1ccc(F)cc1)c1ncc(-c2ccccc2F)[nH]1` (stereo not drawn) here?
**A.** inconclusive: 14.1 µM [activator, partial curve, poor fit]

**Q.** With `Cc1cc(SCC(=O)N/N=C/c2cccnc2)nc2c(C)cccc12` as the compound, how does the “activation” value read?
**A.** inactive: -10.8%

**Q.** For `N#C/C(=C(\O)c1ccco1)c1ccccn1`, which Potency is on record?
**A.** inconclusive: 25.1 µM [activator, single point]

**Q.** For `O=C(Nc1ccc(C(F)(F)F)cc1)c1ccc2ncsc2c1`, which Potency is on record?
**A.** inconclusive: 3.55 µM [activator, partial curve, poor fit]

**Q.** For `O=C(OCc1ccc(F)cc1)c1ccc2c(c1)-c1ccccc1C2=O`, which Potency is on record?
**A.** inconclusive: 22.4 µM [activator, single point]

**Q.** For `O=C(/C=C/Nc1ccc(F)c(F)c1)c1ccc(Br)cc1`, which Potency is on record?
**A.** inconclusive: 2.51 µM [activator, full curve, poor fit]
